Assay results as given in publication PMC6919601, “Identification of Plasmodium dipeptidyl aminopeptidase allosteric inhibitors by high throughput screening” (PLoS ONE, 2019).
“And” between values parts separate entries of the source, which are not always exact repeats. Equal entries are not always repeated. The campaign covered roughly 110,000 compounds. About 230 (0.21%) showed an effect of 50% or more. The list shows a part of the results.
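Further: 30 min substrate incubation versus DMSO and 10 µM JCP410 controls.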

Each molecule was assayed against DPAP1 (Plasmodium falciparum, UniProt Q8IIJ9) (assay: primary screen, percent inhibition; read by cleavage of a fluorogenic dipeptide substrate; higher = more effect of the substance).
Sequence of DPAP1 (Q8IIJ9 whole entry, looked up): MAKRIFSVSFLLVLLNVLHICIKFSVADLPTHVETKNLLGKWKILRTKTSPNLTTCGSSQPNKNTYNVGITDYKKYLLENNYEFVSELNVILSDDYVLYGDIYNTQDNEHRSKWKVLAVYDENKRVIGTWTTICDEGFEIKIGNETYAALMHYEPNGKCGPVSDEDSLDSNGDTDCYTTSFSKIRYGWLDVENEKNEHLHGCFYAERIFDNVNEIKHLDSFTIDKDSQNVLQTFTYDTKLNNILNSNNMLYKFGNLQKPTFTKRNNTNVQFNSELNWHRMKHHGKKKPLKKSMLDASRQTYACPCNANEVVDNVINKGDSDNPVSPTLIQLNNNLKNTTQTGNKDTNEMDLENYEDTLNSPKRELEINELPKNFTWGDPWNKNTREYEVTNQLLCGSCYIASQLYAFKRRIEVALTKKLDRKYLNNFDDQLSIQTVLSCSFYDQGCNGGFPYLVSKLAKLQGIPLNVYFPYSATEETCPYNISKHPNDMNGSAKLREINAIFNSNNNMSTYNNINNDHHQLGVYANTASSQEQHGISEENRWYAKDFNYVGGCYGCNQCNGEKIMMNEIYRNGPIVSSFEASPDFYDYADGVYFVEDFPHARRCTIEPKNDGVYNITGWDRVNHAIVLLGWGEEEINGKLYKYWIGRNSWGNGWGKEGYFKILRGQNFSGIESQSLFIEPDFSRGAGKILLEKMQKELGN
Set-up: species or system P. falciparum D10 trophozoite lysates; single well
With `COC(=O)c1ccc(NC(=O)c2ccc(C(C)(C)C)cc2)cc1` the “% Inhibition @ 10 uM” value was -2.5%.
With `c1ccc(CSc2nncn3c2cc2sccc23)nc1` the “% Inhibition @ 10 uM” value was -11.9%.
`O=C(O)[C@H](Cc1ccccc1)N1C(=O)c2ccncc2C1=O` was tested, and the “% Inhibition @ 10 uM” value was -2.88%.
`CCOC(=O)N1CCN(S(=O)(=O)N2CCCC(C(=O)NCc3ccc(C)cc3)C2)CC1` (stereo not drawn) was tested, and the “% Inhibition @ 10 uM” value was 3.66%.
For `CC(C)c1nnc(N2C(=O)c3oc4ccccc4c(=O)c3C2c2cccnc2)s1` (stereo not drawn), the “% Inhibition @ 10 uM” value was 1.19%.
With `CCOC(=O)C1=C(CC)OC(N)=C(C#N)C1c1ccoc1` (stereo not drawn) the “% Inhibition @ 10 uM” value was 27.5%.
`FC(F)(F)c1ccc(Cl)c(N2N=C(/C=C/c3cccs3)CC2c2cccs2)c1` (stereo not drawn) was tested, and the “% Inhibition @ 10 uM” value was 3.32%.
In the case of `O=C(O)C1CCN(S(=O)(=O)c2ccc(-c3nn[nH]n3)cc2)CC1`, the “% Inhibition @ 10 uM” value is reported as -2.84%.
With `C=C(C)Cn1c(N2CCN(CCO)CC2)nc2c1c(=O)n(C)c(=O)n2C` the “% Inhibition @ 10 uM” value was 4%.
With `O=C(NCc1ccc2c(c1)OCO2)c1ccc(Oc2ccccc2)cc1` the “% Inhibition @ 10 uM” value was 5.39%.
`Cc1ccc(-n2nc3c(c2NC(=O)C2CC2)CS(=O)(=O)C3)cc1` was tested, and the “% Inhibition @ 10 uM” value was 2.5%.
In the case of `O[C@H]1CC[C@H](NC2CCCCCCC2)CC1`, the “% Inhibition @ 10 uM” value is reported as 0.217%.
`CC(C)OCCCNC(=O)c1ccc(CSc2nc3ccncc3n2Cc2ccccc2F)cc1` was tested, and the “% Inhibition @ 10 uM” value was -3.34%.
With `COc1ccc(S(=O)(=O)Nc2cccc(-c3cn4ccsc4n3)c2)cc1OC` the “% Inhibition @ 10 uM” value was 3.99%.
`CCC(C)n1nc(O)c2c1NC(=O)CSC2c1ccc(C)cc1` (stereo not drawn) was tested, and the “% Inhibition @ 10 uM” value was -0.666%.
In the case of `Cc1ccccc1/C=C1\C(=O)NC(=S)N(c2ccc(Cl)cc2)C1=O`, the “% Inhibition @ 10 uM” value is reported as -0.0804%.
`CN(C)C1CS(=O)(=O)CC1N(C)C` (stereo not drawn) was tested, and the “% Inhibition @ 10 uM” value was -11.1%.
For `COc1ccc(S(=O)(=O)Nc2cccc(C(C)=O)c2)c(Cl)c1Cl`, the “% Inhibition @ 10 uM” value was -2.83%.
In the case of `Cc1ccc(NC(=O)CSC2=NC(=O)CC(c3ccccc3)N2)cc1` (stereo not drawn), the “% Inhibition @ 10 uM” value is reported as -3.9%.
For `COc1ccc(C2=C(C)C(=O)OC(c3ccccc3)O2)cc1` (stereo not drawn), the “% Inhibition @ 10 uM” value was -4.91%.
With `O=c1oc2ccc(NS(=O)(=O)c3ccc(F)cc3)cc2s1` the “% Inhibition @ 10 uM” value was 0.889%.
For `O=C(Cn1ncc2c3ccccc3n(Cc3ccccc3)c2c1=O)N1CCC2(CC1)OCCO2`, the “% Inhibition @ 10 uM” value was 0.137%.
With `CC(C)(C)c1ccccc1OCC(=O)NCc1ccco1` the “% Inhibition @ 10 uM” value was -0.69%.
In the case of `Nc1nnc(SCC(=O)NC(c2ccccc2)c2ccccc2)s1`, the “% Inhibition @ 10 uM” value is reported as 0.587%.
With `CN1CCC(O)(c2ccccc2)CC1` the “% Inhibition @ 10 uM” value was -4.35%.
`CCCC(O)(c1ccc(OC)cc1)C(CN(C)C)c1ccccc1` (stereo not drawn) was tested, and the “% Inhibition @ 10 uM” value was -3.93%.
`CCOc1ccc(S(=O)(=O)Nc2ccc(Cl)cn2)c(C)c1C` was tested, and the “% Inhibition @ 10 uM” value was -3.33%.
With `O=c1c(N2CCOCC2)nsn1Cc1ccccc1` the “% Inhibition @ 10 uM” value was -3.39%.
With `O=C(O)CSc1c2c(nc3cc(C(=O)N4CCN(C5CCCCC5)CC4)ccc13)CCC2` the “% Inhibition @ 10 uM” value was 2.74%.
For `Cc1nn(-c2ccc(F)cc2)c(O)c1/C=N/c1ccccc1O`, the “% Inhibition @ 10 uM” value was -0.759%.
`c1ccc(CCCSc2nccn2Cc2ccccc2)cc1` was tested, and the “% Inhibition @ 10 uM” value was -0.239%.
In the case of `CCC(Sc1ncccc1C(=O)OC(C)C)C(=O)NCc1ccco1` (stereo not drawn), the “% Inhibition @ 10 uM” value is reported as 3.66%.
In the case of `COc1ccc(CNC2C3CC4CC(C3)CC2C4)c2ccccc12` (stereo not drawn), the “% Inhibition @ 10 uM” value is reported as -6.08%.
In the case of `CC(C)Oc1ccc(CNC(=O)C2CCCN(S(=O)(=O)N3CCC4(CC3)OCCO4)C2)cc1` (stereo not drawn), the “% Inhibition @ 10 uM” value is reported as -8.18%.
`Cc1cc(N2CCC(C(=O)Nc3nccs3)CC2)n2nc(C)c(-c3ccc(Cl)cc3)c2n1` was tested, and the “% Inhibition @ 10 uM” value was -7.53%.
With `COc1ccc2ccccc2c1CN1CCCC1CO` (stereo not drawn) the “% Inhibition @ 10 uM” value was -1.97%.
With `CCn1cc(C(=O)O)c(=O)c([N+](=O)[O-])c1-c1ccccc1` the “% Inhibition @ 10 uM” value was -2.81%.
`CN1C(=O)C(=Cc2cn(Cc3ccc(Cl)cc3)c3ccccc23)C(=O)N(C)C1=O` was tested, and the “% Inhibition @ 10 uM” value was 23.7%.
With `CCN(CC)c1nc2c(C)cccn2c(=O)c1C=C1C(=O)NC(=O)NC1=O` the “% Inhibition @ 10 uM” value was -0.339%.
With `CC1CCCC(C)N1CCCNC(=O)C1c2ccccc2C(=O)N1CCc1ccc(Cl)cc1` (stereo not drawn) the “% Inhibition @ 10 uM” value was 0.387%.
In the case of `CCOc1ccccc1C1SCC(=O)Nc2c1c(O)nn2C1CCOC(C)(C)C1` (stereo not drawn), the “% Inhibition @ 10 uM” value is reported as -0.45%.
For `Cc1ccc(NC(=O)C(F)(F)F)cc1NC(=O)c1ccc(Cl)cc1Cl`, the “% Inhibition @ 10 uM” value was 2.23%.
For `CCOc1cccc2cc(-c3nc(-c4nonc4N)no3)c(=O)oc12`, the “% Inhibition @ 10 uM” value was 1.4%.
With `O=C(NCCc1ccccc1)c1ccc(CS(=O)(=O)c2c(Cl)cccc2Cl)o1` the “% Inhibition @ 10 uM” value was 2.37%.
With `CC(=O)c1cc2c(cc1NC(=O)CCC(=O)O)OCO2` the “% Inhibition @ 10 uM” value was 4.3%.
With `CCOc1ccc(C(=O)Nc2ccc(S(=O)(=O)Nc3nc(C)cc(C)n3)cc2)cc1` the “% Inhibition @ 10 uM” value was 2.66%.
With `O=C(Cn1ncn2nc(-c3cccs3)cc2c1=O)NC1CCN(Cc2ccccc2)CC1` the “% Inhibition @ 10 uM” value was -2.85%.
In the case of `O=C(NCCO)c1ccc2ccccc2n1`, the “% Inhibition @ 10 uM” value is reported as -0.0267%.
For `CCCCCCCOc1ccc(-c2noc(-c3ccc(Br)cc3)n2)cc1`, the “% Inhibition @ 10 uM” value was -4.31%.
`CCOc1ccccc1CNS(=O)(=O)c1cc(-c2cc(C)no2)ccc1C` was tested, and the “% Inhibition @ 10 uM” value was -5.31%.
For `CCCCC1=NN(C(=O)c2cccnc2)C(O)(C(F)(F)F)C1` (stereo not drawn), the “% Inhibition @ 10 uM” value was -4.84%.
`Cc1cc(S(=O)(=O)N2CC(=O)N(CCc3ccccc3)C(=O)C2)ccc1F` was tested, and the “% Inhibition @ 10 uM” value was 5.01%.
`COc1ccc2[nH]c(C)c(CCNCc3ccc(OC)c(C)c3OC)c2c1` was tested, and the “% Inhibition @ 10 uM” value was 1.35% and 5.99%.
For `Cc1ccnc(NS(=O)(=O)c2ccc(NC(=O)c3ccco3)cc2)n1`, the “% Inhibition @ 10 uM” value was -0.661%.
With `COc1ccc(S(=O)(=O)N(C)CC(=O)N2CCN(c3ccccc3OC)CC2)cc1` the “% Inhibition @ 10 uM” value was 2.98%.
For `Cc1nsc2ccc3sccc3c12`, the “% Inhibition @ 10 uM” value was 1.72%.
For `CC1(C)CC(=O)C2=C(C1)NC(=O)CC2c1cc(F)ccc1F` (stereo not drawn), the “% Inhibition @ 10 uM” value was 3.67%.
For `CCOc1cc(C2C3=C(O)CC(C)(C)CC3=NC(C)=C2C(=O)Nc2ccccc2C)ccc1O` (stereo not drawn), the “% Inhibition @ 10 uM” value was 4.7%.
For `Cc1cc2ccccc2n1CCNC(=O)C1CCCC1`, the “% Inhibition @ 10 uM” value was -8.2%.
In the case of `COc1ccc(-c2nnc3s/c(=C\c4sccc4C)c(=O)n23)cc1OC`, the “% Inhibition @ 10 uM” value is reported as 3.72%.
In the case of `O=C1OC(C(=O)Nc2ncc(Cc3cccc(Cl)c3Cl)s2)Cc2ccccc21` (stereo not drawn), the “% Inhibition @ 10 uM” value is reported as -4.85%.
For `COc1ccc(-c2cc3nc(C)c(C(=O)O)cn3n2)cc1OC`, the “% Inhibition @ 10 uM” value was 0.677%.
In the case of `C=CCOc1c(Cl)cc(/C=C2/SC(=O)NC2=O)cc1OCC`, the “% Inhibition @ 10 uM” value is reported as -3.04%.
